In PubChem BioAssay AID485364 (National Center for Advancing Translational Sciences (NCATS), 2010):
Values joined by “and” are separate entries in the source; they are usually repeats but may differ in a detail not shown here. Equal entries are not always repeated. The whole screen tested about 360,000 compounds, of which about 11,000 (3.1%) were called active. This list was built around the results that the source calls inconclusive (neither active nor inactive); the mix of calls is not that of the screen. Calls come from the whole dose curve; as a rule, active = well fitted inhibition curve with a large enough effect; inconclusive = small, poorly fitted or top-dose-only effect; inactive = no such curve, though single readings can be large or run the other way. Potencies of inconclusive entries are doubtful fits and often do not repeat.

Molecular target: Schistosoma mansoni thioredoxin glutathione reductase (TGR) (UniProt Q962Y6)
Experiment: qHTS Assay for the Inhibitors of Schistosoma Mansoni Peroxiredoxins; note: nearly all actives have a fitted effect of over 60% in size
Conditions: purified TGR, DTNB reduction, TNB absorbance 405 nm; series mostly up to 114 µM
Procedure, shortened: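 TGR 20 nM + NADPH 100 uM (dispensed conc.), cpd preinc 15 min RT; start with NADPH (500 uM addition) then DTNB (15 mM addition). Kinetic TNB absorbance, 405 nm filter. Four-parameter Hill fit across titration.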
Potency is the fitted concentration of half-maximal effect; tags give direction and shape of the fitted curve.

SMILES	Potency
O=C(CCS(=O)(=O)c1ccc(Br)cc1)Nc1ccc2c(c1)OCO2	active: 39.8 µM
CCN(CC)S(=O)(=O)c1ccc(NC(=S)Nc2ccccc2)cc1	inconclusive: 22.4 µM [inhibitor, full curve]
O=C(Nc1ccc(S(=O)(=O)N2CCOCC2)cc1)c1ccc([N+](=O)[O-])o1	active: 28.2 µM
CC(C)C(=O)N1CCN(c2ccc(NC(=O)c3ccc([N+](=O)[O-])o3)cc2)CC1	inconclusive: 14.1 µM [inhibitor, partial curve]
C(=C\c1ccccc1)/CSc1nnc(-c2ccncc2)n1Cc1ccco1	inconclusive: 28.2 µM [inhibitor, full curve]
OCCNCCCOc1cc(Cl)ccc1Cl	inconclusive: 50.1 µM [inhibitor, partial curve]
N#C/C(=C\Nc1ccccn1)S(=O)(=O)c1ccc(Cl)cc1	inconclusive: 35.5 µM [inhibitor, single point]
O=C(Nc1ccc2c(c1)CCC2)c1ccc(Cl)nc1	inactive
Cc1ccc(-c2nn3c(-c4ccco4)nnc3c3ccccc23)cc1S(=O)(=O)N1CCOCC1	inconclusive: 50.1 µM [inhibitor, partial curve]
Cc1cnc(C(=O)N2CCCC(N3CCN(c4ccccc4C)CC3)C2)cn1 (stereo not drawn)	inconclusive: 1.26 µM [inhibitor, full curve, poor fit]
CC1=C(C(=O)Nc2cc(C)ccc2C)C(c2cccs2)NC(=S)N1 (stereo not drawn)	inactive
O=C(Oc1ccc(-c2ccccc2)cc1)C1C2CCCCC21 (stereo not drawn)	inconclusive: 31.6 µM [inhibitor, single point]
C=C(C)C1CC=C(C)/C(=N/Nc2ccccc2[N+](=O)[O-])C1 (stereo not drawn)	inconclusive: 25.1 µM [inhibitor, full curve, poor fit]
CC1=C/C(=N\OS(=O)(=O)c2ccccc2)C(C(C)C)=CC1=O	inconclusive: 44.7 µM [inhibitor, partial curve]
CCOC(=O)COc1ccc(Br)cc1/C=C\c1[nH]c(=O)[nH]c(=O)c1[N+](=O)[O-]	inconclusive: 20 µM [inhibitor, full curve]
O=C(O)c1ccc(/C=N/Nc2ccc(C(F)(F)F)cn2)cc1	inactive
c1ccc2c(CN3CCCCC3)csc2c1	inconclusive: 22.4 µM [inhibitor, single point]
O=C(c1cccs1)N1N=C(c2ccccc2)CC1c1ccccc1 (stereo not drawn)	inactive
COc1ccc(N2CCCC2)c(NC(=O)c2ccc([N+](=O)[O-])o2)c1	inconclusive: 56.2 µM [inhibitor, partial curve]
COc1ccc(-c2n[nH]c(=S)n2-c2ccc(Br)cc2)cc1OC	inactive
CN(Cc1ccccc1)C(=O)C1CCN(S(=O)(=O)c2ccc3nc4c(c(C(=O)O)c3c2)CCCC4)CC1	inactive and inconclusive: 39.8 µM [inhibitor, partial curve]
OCc1ccc(O)c2ncccc12	active: 22.4 µM
CCOC(=O)Nc1ccc2c(c1)ncn2C1CCCCC1	inactive
COc1ccc(C(C(C(=O)c2cccs2)N2CCOCC2)N2CCOCC2)cc1OC (stereo not drawn)	inconclusive: 50.1 µM [inhibitor, partial curve]
Clc1cccc(Cl)c1-c1nnc2cccc(Cl)n12	inconclusive: 100 µM [inhibitor, single point]

SMILES	Potency
Cc1cc(C(=O)NP(=O)(N2CC(C)OC(C)C2)N2CC(C)OC(C)C2)c(C)n1C1CC1 (stereo not drawn)	inconclusive: 50.1 µM [inhibitor, partial curve]
CCOc1ccc(C(C)=O)cc1N1C(=O)C2C(C1=O)C1C=CC2C12CC2 (stereo not drawn)	inconclusive: 12.6 µM [inhibitor, full curve, poor fit]
CNS(=O)(=O)c1ccc2nc(NC(=O)/C=C/c3ccco3)sc2c1	active: 22.4 µM
O=C(OCc1nnc(-c2ccccc2)o1)c1ccc(S(=O)(=O)NCc2ccco2)cc1	inconclusive: 14.1 µM [inhibitor, partial curve]
Cc1nc(CC(=O)Nc2nc(C(C)(C)C)cs2)cs1	inactive
CCNc1ccccc1CP(=O)(c1ccccc1)c1ccccc1O (stereo not drawn)	active: 0.501 µM
Cc1ccc(S(=O)(=O)NN2C(=O)/C(=C/c3cccc(F)c3)SC2=S)cc1	inconclusive: 56.2 µM [inhibitor, partial curve]
CC(=O)c1ccc(NC(=O)C(C)OC(=O)c2ccc(NS(=O)(=O)c3ccc(F)c(F)c3)cc2)cc1 (stereo not drawn)	inactive
CC1(C)CC(=O)c2sc(NS(=O)(=O)c3cc(Cl)ccc3Cl)nc2C1	inconclusive: 79.4 µM [inhibitor, partial curve]
CN(C1=C(N2CCOCC2)C(=O)c2ccccc2C1=O)c1ccccc1	active: 25.1 µM
Cc1ccc(/C=C/C(=O)Nc2sc3c(c2C#N)CCCC3)o1	active: 44.7 µM
CC(C)=CCC/C(C)=C/COc1ccc2ccc(=O)oc2c1	inactive
COc1cccc(C(=O)Nc2ccccc2-c2nnc(-c3cc(OC)ccc3Br)o2)c1	inactive
CC(C)c1ccc(NC(=O)N2CCc3ccccc3C2)cc1	inactive
COc1ccc(C2C(C#N)=C(N)Oc3cc(C)n(Cc4ccco4)c(=O)c32)cc1 (stereo not drawn)	active: 31.6 µM
Fc1cc(Br)ccc1NC(=S)Nc1ccccc1	active: 28.2 µM
COc1ccc2ncc3c(-c4ccc(C)c(C)c4)nn(CC(=O)NC4CCCCC4)c3c2c1	inactive
COc1ccc(OC)c(C2C(C(=O)c3cccs3)=C(O)C(=O)N2CCN2CCOCC2)c1 (stereo not drawn)	inconclusive: 50.1 µM [inhibitor, partial curve]
CC(=O)c1cccc(NC(=O)CCS(=O)(=O)c2cccc3nonc23)c1	inconclusive: 39.8 µM [inhibitor, partial curve]
O=C(CCC1N=C2c3ccccc3N=C(SCc3ccc(Cl)cc3)N2C1=O)NCc1ccco1 (stereo not drawn)	inconclusive: 35.5 µM [inhibitor, partial curve]
COCCN(CCOC)Cc1c(O)ccc2c3c(c(=O)oc12)CCC3	inconclusive: 7.08 µM [inhibitor, full curve, poor fit]
CCOC(=O)N1CCC(NC(=O)CS(=O)(=O)Cc2nc(-c3cccc(Cl)c3)oc2C)CC1	active: 35.5 µM
COc1ccc(-c2oc(NC(=O)CCl)c(C#N)c2-c2ccc(OC)cc2)cc1	inconclusive: 14.1 µM [inhibitor, partial curve]
O=C(COCc1cc(-c2cccs2)on1)Nc1ccc(OC(F)(F)F)cc1	inactive
Cc1ccc(CN(C)C(=O)c2cccc(S(=O)(=O)N3CCN(Cc4ccccc4)CC3)c2)o1	inconclusive: 50.1 µM [inhibitor, partial curve]

SMILES	Potency
CCOc1ccc(N2C(=O)N(Cc3c(F)cccc3Cl)c3ccccc3S2(=O)=O)cc1	inactive
CC(=O)c1cccc(N=C2C(=O)Nc3ccccc32)c1	inconclusive: 44.7 µM [inhibitor, partial curve]
CN1C(=O)NC(=O)[C@]2(Cc3ccccc3N3CCN(c4ccccc4)CC32)C1=O (stereo partly drawn)	inconclusive: 39.8 µM [inhibitor, partial curve]
COc1ccc(Cn2c(-c3ccc(OC)cc3)nc3c(c(=O)c4ccccc4n3C)c2=O)cc1	inactive
COc1ccccc1CNC(=O)c1ccc(-c2nc(CS(=O)c3ccccc3)c(C)o2)cc1 (stereo not drawn)	inconclusive: 39.8 µM [inhibitor, partial curve]
CCCCn1cc(S(=O)(=O)c2ccc(F)cc2)c(=O)c2ccccc21	inconclusive: 89.1 µM [inhibitor, single point]
COc1cccc(/C(O)=C2/C(=O)C(=O)N(CCN3CCOCC3)C2c2cccnc2)c1 (stereo not drawn)	active: 22.4 µM
CCOC(=O)C1CCCCN1Cc1cccc(OCc2ccccc2)c1 (stereo not drawn)	inactive
O=C(/C=C/c1cccc(Br)c1)c1ccc2c(c1)OCO2	inconclusive: 15.8 µM [inhibitor, full curve]
CCn1cc(CN2CCCC(C(=O)Nc3ccc(-c4nc5ccccc5[nH]4)cc3)C2)c(C)n1 (stereo not drawn)	inconclusive: 15.8 µM [inhibitor, full curve, poor fit]
COc1ccccc1C1NC=C([N+](=O)[O-])C=C1[N+](=O)[O-] (stereo not drawn)	inconclusive: 35.5 µM [inhibitor, partial curve]
C/C(=N\Nc1ccc(Cl)c(C(=O)O)c1)c1ccc2c(c1)OCO2	inconclusive: 44.7 µM [inhibitor, partial curve]
CC(C)(C)n1nnnc1C(c1cccnc1)N1CCN(c2ccccc2)CC1 (stereo not drawn)	inactive
Cc1cc(N2C(=O)C(O)=C(C(=O)c3ccc(C)o3)C2c2cccs2)no1 (stereo not drawn)	inconclusive: 39.8 µM [inhibitor, partial curve]
COc1ccc(CNS(=O)(=O)NCc2ccccc2)cc1OC	inactive
O=C(CSc1ccc(-c2ccco2)nn1)N1CCCC1	active: 17.8 µM
COC(=O)C1=C(C)N(Cc2ccco2)C(=O)/C1=C\c1ccc([N+](=O)[O-])cc1	active: 7.94 µM
CCN(CC)C(=O)Cn1cc(C(=O)C(=O)NCc2ccco2)c2ccccc21	active: 39.8 µM
CCCCCn1c(CNC(=O)c2cccs2)nc2ccccc21	inactive
COc1ccc(N2C(=O)/C(=C\c3ccco3)N=C2SCC(N)=O)cc1Cl	inconclusive: 44.7 µM [inhibitor, partial curve]
COc1cc(C(=O)NCc2ccc3c(c2)OCO3)c([N+](=O)[O-])cc1OC	inactive
CCCC(=O)NCc1ccc2c(c1)cc(C)n2C	inactive
COC(=O)C1=NNC2(C)C(=O)N(c3ccc(C)cc3)C(=O)C12 (stereo not drawn)	inactive
